Values joined by “and” are separate entries in the source; they are usually repeats but may differ in a detail not shown here. Equal values may be shown once. This list was built around the results that the source calls inconclusive (neither active nor inactive); the mix of calls is not that of the screen. Where the call is inconclusive, the potency comes from a doubtful curve fit. Some compounds were tested as several samples or in several runs, with calls that do not always agree. Active and inactive are the calls of the source. The call rests on the fitted dose curve; in most records, active means well fitted curve in the direction sought with a large enough effect; inconclusive means small, poorly fitted or top-dose-only effect, or another doubt; inactive means no such curve, though single readings can be large; an effect the other way counts as inactive or inconclusive.
How the values were obtained:
[1] = qHTS for Inhibitors of Plasmodium falciparum (DD2) proliferation (AID 504314);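 on activity, negative = inhibition: parasite DNA measured by SYBR Green fluorescence after red cell lysis; plate controls were DMSO vehicle for no effect and artemisinin wells for full effect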; conditions: P. falciparum Dd2 in erythrocytes, SYBR Green growth, 72 h; activity, negative = inhibition: at 6.11 µM (top of the series)
How it was run: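 P. falciparum Dd2 is grown in erythrocytes with test compound for 72 h at 37C under 5% CO2. Growth is scored by SYBR Green I fluorescence after detergent lysis, relative to artemisinin (0.29 uM) and DMSO controls.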

[2] = qHTS for Inhibitors of Plasmodium falciparum (GB4) proliferation (AID 504315); further: nearly all actives have a fitted effect of over 50% in size;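 on activity change, negative = inhibition: 0% = DMSO vehicle and -100% = 0.29 µM artemisinin control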; conditions: P. falciparum GB4 in erythrocytes, SYBR Green DNA, 72 h; activity change, negative = inhibition: at 6.7 µM (top of the series)
How it was run: (§1)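 Parasite growth measured as SYBR Green DNA fluorescence (ex 485, em 535 nm) after overnight lysis following 72 h culture at 37 °C, 0.3% parasitemia, 2.5% hematocrit. Values normalized against DMSO and 0.29 uM artemisinin controls, with plate-stack correction.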

[3] = qHTS for Inhibitors of Plasmodium falciparum (7G8) proliferation (AID 504316); further: nearly all actives have a fitted effect of over 65% in size;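 on activity change, negative = inhibition: 0% = DMSO vehicle and -100% = 0.29 µM artemisinin full kill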; conditions: P. falciparum 7G8 in erythrocytes, SYBR Green DNA, 72 h; activity change, negative = inhibition: at 6.7 µM (top of the series)
How it was run: as §1

[4] = qHTS for Inhibitors of Plasmodium falciparum (HB3) proliferation (AID 504318); further: nearly all actives have a fitted effect of over 60% in size;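 on activity change, negative = inhibition: 0% = DMSO vehicle and -100% = artemisinin control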; conditions: P. falciparum HB3 in erythrocytes, SYBR Green DNA, 72 h; activity change, negative = inhibition: at 7.21 µM (top of the series)
How it was run: as §1
Potency means the concentration at half of the fitted maximal effect; tags describe the fitted curve by direction and shape.

Compound | Potency [1] | Potency [2] | Potency [3] | Potency [4] | activity, negative = inhibition [1]
CCOC(=O)C1=CN(CCCc2cn(Cc3ccccc3)nn2)C(=O)NC1c1ccccc1 (stereo not drawn) | inactive | inactive | inactive |  | 
CC1=C[C@@H](COCc2ccccc2)O[C@@]2(C1)C(=O)N(CC1CC1)c1ccccc12 | inconclusive: 1.89 µM [inhibitor, single point] | inactive | inconclusive: 3.38 µM [inhibitor, single point] | inconclusive: 0.757 µM [inhibitor, full curve] | 
Fc1ccccc1-c1nc(-c2ccccc2)oc1NCc1ccccc1 | inconclusive: 1.69 µM [inhibitor, partial curve] | inconclusive: 1.51 µM [inhibitor, single point] | inconclusive: 4.26 µM [inhibitor, single point] | inconclusive: 1.69 µM [inhibitor, partial curve] | 
FC(F)(F)c1ccc(-c2nc(-c3ccccc3)oc2NCc2ccccc2)cc1 | inconclusive: 1.5 µM [inhibitor, partial curve, poor fit] | inconclusive: 4.26 µM [inhibitor, single point] | inconclusive: 1.9 µM [inhibitor, partial curve, poor fit] | inconclusive: 2.13 µM [inhibitor, partial curve] | 
CCc1cc2c(nc1CC)CCN(CCC(C)=NO[C@@H](C)c1cn([C@H](CO)Cc3ccccc3)nn1)C2 | inconclusive: 1.5 µM [inhibitor, partial curve] | inconclusive: 1.51 µM [inhibitor, single point] | active: 1.69 µM | inconclusive: 1.69 µM [inhibitor, partial curve] | 
CCCCc1cc2c(cn1)=C(OC(=O)C1CCCC1)C(C)(OC(=O)CC)C(=O)C=2 (stereo not drawn) | inconclusive: 1.69 µM [inhibitor, partial curve] | active: 1.9 µM | active: 1.51 µM and active: 1.69 µM | inconclusive: 3.01 µM [inhibitor, single point] and inactive | 
C=C(C)C[C@@]1(c2ccccc2)Oc2ccccc2C2=NCCN=C21 | inconclusive: 3.78 µM [inhibitor, single point] | inactive | inconclusive: 0.478 µM [inhibitor, single point] | inconclusive: 1.69 µM [inhibitor, partial curve] | 
CC1(C)CC(=O)C2=C(C1)O[C@@]1(CCCCN3C(=O)c4ccccc4C3=O)Cc3cc(C#N)ccc3[C@H]2O1 | inconclusive: 4.24 µM [inhibitor, single point] | inconclusive: 1.51 µM [inhibitor, single point] | active: 1.69 µM | inconclusive: 2.13 µM [inhibitor, partial curve] | 
CCOC(=O)CN1C(=O)[C@]2(O[C@H](COc3ccccc3)CC3=C2CCC3)c2ccccc21 | inconclusive: 3.78 µM [inhibitor, single point] | inconclusive: 3.79 µM [inhibitor, single point] | inconclusive: 2.69 µM [inhibitor, single point] | inconclusive: 1.51 µM [inhibitor, partial curve] | 
CCCCc1cc2c(cn1)C(=O)C(C)(OC(C)=O)C(=O)C2 (stereo not drawn) | active: 1.69 µM | active: 1.69 µM | active: 2.13 µM and active: 1.69 µM | inconclusive: 3.01 µM [inhibitor, single point] | 
CC(C)OCCCN1C=C2C(=O)C(C)(OC(=O)C3CCCC3)C(=O)C=C2C=C1c1ccsc1 (stereo not drawn) | inconclusive: 3.36 µM [inhibitor, partial curve, poor fit] | inconclusive: 1.69 µM [inhibitor, single point] | inconclusive: 1.51 µM [inhibitor, single point] and inactive | inconclusive: 4.15 µM [inhibitor, single point] and inconclusive: 4.26 µM [inhibitor, single point] | 
COC(=O)CC1OC1[C@H](C)[C@@H](OC)C(C)C (stereo partly drawn) | inconclusive: 4.24 µM [inhibitor, single point] | inconclusive: 1.51 µM [inhibitor, partial curve] | active: 1.69 µM | inconclusive: 2.62 µM [inhibitor, partial curve] | 
CC1(C)O[C@@H](C(O)(c2ccccc2)c2ccccc2)[C@H](C(O)(c2ccccc2)c2ccccc2)O1 | inconclusive: 4.24 µM [inhibitor, single point] | inconclusive: 1.51 µM [inhibitor, partial curve] | inconclusive: 4.26 µM [inhibitor, single point] | inconclusive: 2.39 µM [inhibitor, single point] | 
CC12C=C(C=CCCc3ccco3)C(C)(C1)[C@H](CCc1ccco1)CC2=O (stereo partly drawn) | inconclusive: 4.24 µM [inhibitor, single point] | inactive | inconclusive: 1.51 µM [inhibitor, single point] | inconclusive: 4.26 µM [inhibitor, single point] | 
N#Cc1ccc2c(c1)C[C@]1(CCCCN3C(=O)c4ccccc4C3=O)OC3=C(C(=O)OC4(CCCCC4)C3)[C@H]2O1 | inconclusive: 3 µM [inhibitor, single point] | inconclusive: 1.51 µM [inhibitor, single point] | inconclusive: 3.01 µM [inhibitor, single point] | inconclusive: 3.79 µM [inhibitor, single point] | 
COC(=O)C1=C(C(=O)OC)[C@@H]2N(Cc3ccccc3)c3ccccc3[C@@]23C[C@@H](C(=O)OC)N(S(=O)(=O)c2ccc([N+](=O)[O-])cc2)C3=N1 |  | inconclusive: 4.26 µM [inhibitor, single point] | active: 1.69 µM | active: 1.9 µM | inactive: -5.24% [at 1.12 µM]
COC(=O)CC=C1c2ccc(F)cc2[C@@H](OC)[C@@H]1C | inactive | inactive | inactive | inactive | 
O=C1CCCC2=C1[C@H]1O[C@](CCCCN3C(=O)c4ccccc4C3=O)(Cc3ccccc31)O2 | inconclusive: 1.89 µM [inhibitor, single point] | inconclusive: 1.51 µM [inhibitor, partial curve] | active: 1.9 µM | inconclusive: 1.51 µM [inhibitor, partial curve] | 
C[C@H]1C=CCC(=O)N[C@@H](c2ccccc2)[C@@H](C)C=CCC(=O)N[C@@H]1c1ccccc1 | inconclusive: 2.67 µM [inhibitor, single point] | inconclusive: 1.69 µM [inhibitor, single point] | active: 0.426 µM | active: 1.51 µM | 
COC[C@@H](O)[C@H]1OCc2ccccc2[C@@H]1C=Cc1ccccc1 | inconclusive: 1.69 µM [inhibitor, partial curve] | inconclusive: 2.13 µM [inhibitor, single point] | inconclusive: 2.39 µM [inhibitor, single point] | inconclusive: 2.13 µM [inhibitor, single point] | 
COC(=O)C1=C(C(=O)OC)[C@@H]2N(CC=C(C)C)c3ccccc3[C@@]23CCC(=O)N(Cc2cccc(C(F)(F)F)c2)C3=N1 | inconclusive: 2.67 µM [inhibitor, single point] | active: 0.849 µM | inconclusive: 3.01 µM [inhibitor, single point] | active: 2.94 µM | 
Cc1ccccc1Nc1oc(-c2ccccc2)nc1-c1ccccc1F | inconclusive: 4.24 µM [inhibitor, single point] | inconclusive: 1.69 µM [inhibitor, partial curve] | inconclusive: 2.13 µM [inhibitor, single point] | inconclusive: 1.69 µM [inhibitor, single point] | 
Cc1ccc(C=CC2=C[C@]3(C)C[C@]2(C)[C@H](c2ccc(C)cc2)CC3=O)cc1 | inconclusive: 3.36 µM [inhibitor, single point] | inconclusive: 1.69 µM [inhibitor, single point] | inconclusive: 1.69 µM [inhibitor, partial curve] | inconclusive: 1.9 µM [inhibitor, single point] | 
COC(=O)C1=C(C)N(Cc2ccccc2)C(=NCCc2c[nH]c3ccccc23)NC1c1cccc(F)c1 (stereo not drawn) | inconclusive: 1.34 µM [inhibitor, partial curve] | inconclusive: 1.69 µM [inhibitor, partial curve] | inconclusive: 3.01 µM [inhibitor, single point] | inactive | 
COc1ccc([C@]23Cc4cc(C#N)ccc4[C@H](O2)c2c(cc(C)n(Cc4ccccc4)c2=O)O3)cc1 | inconclusive: 4.24 µM [inhibitor, single point] | inconclusive: 2.13 µM [inhibitor, single point] | active: 1.69 µM | inconclusive: 1.9 µM [inhibitor, single point] | 
C[C@]12C[C@@](C)(C=C1C=Cc1ccc(C(F)(F)F)cc1)C(=O)C[C@H]2c1ccc(C(F)(F)F)cc1 | inconclusive: 1.69 µM [inhibitor, single point] | active: 1.51 µM | inconclusive: 2.13 µM [inhibitor, single point] | inconclusive: 1.69 µM [inhibitor, partial curve] | 

Reference: PubChem BioAssay (NCATS)
